The list shows a part of the results.
Key:
Assay in all cases: glycan array binding signal (z-score within array); higher = stronger binding
Settings in all cases: glycan notation: IUPAC condensed, linker removed
[1] = molecular target: GlcA3S(b1-3)Gal(b1-4)GlcNAc(b1-2)Man
In short: (§1)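 From the Consortium for Functional Glycomics database, 3228 arrays were curated, keeping only those whose protein sequence was available. Binding is given as a within-array Z-score averaged across arrays sharing a protein sequence and across linkers. Negative Z-scores can be read as non-binding.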

[2] = molecular target: GlcA3S(b1-3)Gal(b1-4)GlcNAc(b1-3)Gal(b1-4)Glc
In short: as §1

[3] = molecular target: GlcNAc(a1-3)Gal(b1-4)GlcNAc
In short: as §1

[4] = molecular target: GlcNAc(a1-4)Gal(b1-3)GlcNAc
In short: as §1

[5] = molecular target: GlcNAc(a1-4)Gal(b1-4)GalNAc
In short: as §1

[6] = molecular target: GlcNAc(a1-4)Gal(b1-4)GlcNAc
In short: as §1

[7] = molecular target: GlcNAc(a1-4)Gal(b1-4)GlcNAc(b1-3)Gal(b1-4)Glc
In short: as §1

[8] = molecular target: GlcNAc(a1-4)Gal(b1-4)GlcNAc(b1-3)Gal(b1-4)GlcNAc
In short: as §1

[9] = molecular target: GlcNAc(a1-4)Gal(b1-4)GlcNAc(b1-3)Gal(b1-4)GlcNAc(b1-3)Gal(b1-4)GlcNAc
In short: as §1

[10] = molecular target: GlcNAc(a1-4)Gal(b1-4)GlcNAc(b1-3)Gal(b1-4)[Fuc(a1-3)]GlcNAc(b1-3)Gal(b1-4)[Fuc(a1-3)]GlcNAc
In short: as §1

[11] = molecular target: GlcNAc(a1-6)Gal(b1-4)GlcNAc
In short: as §1

[12] = molecular target: GlcNAc(b1-2)Gal(b1-3)GalNAc
In short: as §1

[13] = molecular target: GlcNAc(b1-2)Gal(b1-3)GlcNAc
In short: as §1

[14] = molecular target: GlcNAc(b1-2)Man(a1-3)[GlcNAc(b1-2)Man(a1-6)]Man(b1-4)GlcNAc(b1-4)GlcNAc
In short: as §1

[15] = molecular target: GlcNAc(b1-2)Man(a1-3)[GlcNAc(b1-2)Man(a1-6)]Man(b1-4)GlcNAc(b1-4)[Fuc(a1-6)]GlcNAc
In short: as §1

[16] = molecular target: GlcNAc(b1-2)Man(a1-3)[GlcNAc(b1-4)][GlcNAc(b1-2)Man(a1-6)]Man(b1-4)GlcNAc(b1-4)GlcNAc
In short: as §1

[17] = molecular target: GlcNAc(b1-2)Man(a1-3)[GlcNAc(b1-4)][GlcNAc(b1-2)Man(a1-6)]Man(b1-4)GlcNAc(b1-4)[Fuc(a1-6)]GlcNAc
In short: as §1

[18] = molecular target: GlcNAc(b1-2)[GlcNAc(b1-4)]Man(a1-3)[GlcNAc(b1-2)Man(a1-6)]Man(b1-4)GlcNAc(b1-4)GlcNAc
In short: as §1

[19] = molecular target: GlcNAc(b1-2)[GlcNAc(b1-4)]Man(a1-3)[GlcNAc(b1-4)][GlcNAc(b1-2)Man(a1-6)]Man(b1-4)GlcNAc(b1-4)GlcNAc
In short: as §1

[20] = molecular target: GlcNAc(b1-2)[GlcNAc(b1-4)]Man(a1-3)[GlcNAc(b1-4)][GlcNAc(b1-2)[GlcNAc(b1-6)]Man(a1-6)]Man(b1-4)GlcNAc(b1-4)GlcNAc
In short: as §1

[21] = molecular target: GlcNAc(b1-2)[GlcNAc(b1-4)]Man(a1-3)[GlcNAc(b1-4)][GlcNAc(b1-2)[GlcNAc(b1-6)]Man(a1-6)]Man(b1-4)GlcNAc(b1-4)[Fuc(a1-6)]GlcNAc
In short: as §1

[22] = molecular target: GlcNAc(b1-2)[GlcNAc(b1-6)]Man(a1-6)[GlcNAc(b1-2)Man(a1-3)]Man(b1-4)GlcNAc(b1-4)GlcNAc
In short: as §1

[23] = molecular target: GlcNAc(b1-2)[GlcNAc(b1-6)]Man(a1-6)[GlcNAc(b1-2)Man(a1-3)]Man(b1-4)GlcNAc(b1-4)[Fuc(a1-6)]GlcNAc
In short: as §1

[24] = molecular target: GlcNAc(b1-2)[GlcNAc(b1-6)]Man(a1-6)[GlcNAc(b1-4)][GlcNAc(b1-2)Man(a1-3)]Man(b1-4)GlcNAc(b1-4)GlcNAc
In short: as §1

GlcNAc(b1-3)Fuc = molecular target: GlcNAc(b1-3)Fuc
In short: as §1

GlcNAc(b1-3)Gal = molecular target: GlcNAc(b1-3)Gal
In short: as §1

[25] = molecular target: GlcNAc(b1-3)Gal(b1-3)GalNAc
In short: as §1

GlcNAc(b1-3)Gal(b1-4)Glc = molecular target: GlcNAc(b1-3)Gal(b1-4)Glc
In short: as §1

[26] = molecular target: GlcNAc(b1-3)Gal(b1-4)GlcNAc
In short: as §1

[27] = molecular target: GlcNAc(b1-3)Gal(b1-4)GlcNAc(b1-2)Man(a1-3)[GlcNAc(b1-3)Gal(b1-4)GlcNAc(b1-2)Man(a1-6)]Man(b1-4)GlcNAc(b1-4)GlcNAc
In short: as §1

[28] = molecular target: GlcNAc(b1-3)Gal(b1-4)GlcNAc(b1-2)Man(a1-3)[GlcNAc(b1-3)Gal(b1-4)GlcNAc(b1-2)Man(a1-6)]Man(b1-4)GlcNAc(b1-4)[Fuc(a1-6)]GlcNAc
In short: as §1

[29] = molecular target: GlcNAc(b1-3)Gal(b1-4)GlcNAc(b1-2)[GlcNAc(b1-3)Gal(b1-4)GlcNAc(b1-6)]Man(a1-6)[GlcNAc(b1-3)Gal(b1-4)GlcNAc(b1-2)Man(a1-3)]Man(b1-4)GlcNAc(b1-4)GlcNAc
In short: as §1

[30] = molecular target: GlcNAc(b1-3)Gal(b1-4)GlcNAc(b1-3)Gal(b1-4)GlcNAc
In short: as §1

[31] = molecular target: GlcNAc(b1-3)Gal(b1-4)GlcNAc(b1-3)Gal(b1-4)GlcNAc(b1-2)Man(a1-3)[GlcNAc(b1-3)Gal(b1-4)GlcNAc(b1-3)Gal(b1-4)GlcNAc(b1-2)Man(a1-6)]Man(b1-4)GlcNAc(b1-4)GlcNAc
In short: as §1

[32] = molecular target: GlcNAc(b1-3)Gal(b1-4)GlcNAc(b1-3)Gal(b1-4)GlcNAc(b1-2)Man(a1-3)[GlcNAc(b1-3)Gal(b1-4)GlcNAc(b1-3)Gal(b1-4)GlcNAc(b1-2)Man(a1-6)]Man(b1-4)GlcNAc(b1-4)[Fuc(a1-6)]GlcNAc
In short: as §1

[33] = molecular target: GlcNAc(b1-3)Gal(b1-4)GlcNAc(b1-3)Gal(b1-4)GlcNAc(b1-2)[GlcNAc(b1-3)Gal(b1-4)GlcNAc(b1-3)Gal(b1-4)GlcNAc(b1-6)]Man(a1-6)[GlcNAc(b1-3)Gal(b1-4)GlcNAc(b1-3)Gal(b1-4)GlcNAc(b1-2)Man(a1-3)]Man(b1-4)GlcNAc(b1-4)[Fuc(a1-6)]GlcNAc
In short: as §1

[34] = molecular target: GlcNAc(b1-3)Gal(b1-4)GlcNAc(b1-3)Gal(b1-4)GlcNAc(b1-3)Gal(b1-4)GlcNAc(b1-2)Man(a1-3)[GlcNAc(b1-3)Gal(b1-4)GlcNAc(b1-3)Gal(b1-4)GlcNAc(b1-3)Gal(b1-4)GlcNAc(b1-2)Man(a1-6)]Man(b1-4)GlcNAc(b1-4)GlcNAc
In short: as §1

[35] = molecular target: GlcNAc(b1-3)Gal(b1-4)GlcNAc(b1-3)Gal(b1-4)GlcNAc(b1-3)Gal(b1-4)GlcNAc(b1-2)Man(a1-3)[GlcNAc(b1-3)Gal(b1-4)GlcNAc(b1-3)Gal(b1-4)GlcNAc(b1-3)Gal(b1-4)GlcNAc(b1-2)Man(a1-6)]Man(b1-4)GlcNAc(b1-4)[Fuc(a1-6)]GlcNAc
In short: as §1

[36] = molecular target: GlcNAc(b1-3)Gal(b1-4)GlcNAc(b1-3)Gal(b1-4)GlcNAc(b1-3)Gal(b1-4)GlcNAc(b1-2)[GlcNAc(b1-3)Gal(b1-4)GlcNAc(b1-3)Gal(b1-4)GlcNAc(b1-3)Gal(b1-4)GlcNAc(b1-6)]Man(a1-6)[GlcNAc(b1-3)Gal(b1-4)GlcNAc(b1-3)Gal(b1-4)GlcNAc(b1-3)Gal(b1-4)GlcNAc(b1-2)Man(a1-3)]Man(b1-4)GlcNAc(b1-4)[Fuc(a1-6)]GlcNAc
In short: as §1

[37] = molecular target: GlcNAc(b1-3)Gal(b1-4)GlcNAc(b1-3)Gal(b1-4)GlcNAc(b1-3)Gal(b1-4)GlcNAc(b1-3)Gal(b1-4)GlcNAc(b1-2)Man(a1-3)[GlcNAc(b1-3)Gal(b1-4)GlcNAc(b1-3)Gal(b1-4)GlcNAc(b1-3)Gal(b1-4)GlcNAc(b1-3)Gal(b1-4)GlcNAc(b1-2)Man(a1-6)]Man(b1-4)GlcNAc(b1-4)GlcNAc
In short: as §1

[38] = molecular target: GlcNAc(b1-3)Gal(b1-4)GlcNAc(b1-3)Gal(b1-4)GlcNAc(b1-3)Gal(b1-4)GlcNAc(b1-3)Gal(b1-4)GlcNAc(b1-2)Man(a1-3)[GlcNAc(b1-3)Gal(b1-4)GlcNAc(b1-3)Gal(b1-4)GlcNAc(b1-3)Gal(b1-4)GlcNAc(b1-3)Gal(b1-4)GlcNAc(b1-2)Man(a1-6)]Man(b1-4)GlcNAc(b1-4)[Fuc(a1-6)]GlcNAc
In short: as §1

[39] = molecular target: GlcNAc(b1-3)Gal(b1-4)GlcNAc(b1-3)Gal(b1-4)GlcNAc(b1-3)Gal(b1-4)GlcNAc(b1-3)Gal(b1-4)GlcNAc(b1-2)[GlcNAc(b1-3)Gal(b1-4)GlcNAc(b1-3)Gal(b1-4)GlcNAc(b1-3)Gal(b1-4)GlcNAc(b1-3)Gal(b1-4)GlcNAc(b1-6)]Man(a1-6)[GlcNAc(b1-3)Gal(b1-4)GlcNAc(b1-3)Gal(b1-4)GlcNAc(b1-3)Gal(b1-4)GlcNAc(b1-3)Gal(b1-4)GlcNAc(b1-2)Man(a1-3)]Man(b1-4)GlcNAc(b1-4)[Fuc(a1-6)]GlcNAc
In short: as §1

[40] = molecular target: GlcNAc(b1-3)Gal(b1-4)GlcNAc(b1-3)Gal(b1-4)GlcNAc(b1-3)GalNAc
In short: as §1

[41] = molecular target: GlcNAc(b1-3)Gal(b1-4)GlcNAc(b1-3)GalNAc
In short: as §1

[42] = molecular target: GlcNAc(b1-3)Gal(b1-4)GlcNAc(b1-3)[GlcNAc(b1-3)Gal(b1-4)GlcNAc(b1-3)]GalNAc
In short: as §1

B1: Gal 2 (Homo sapiens), P05162 (protein)
chain: MTGELEVKNMDMKPGSTLKITGSIADGTDGFVINLGQGTDKLNLHFNPRFSESTIVCNSLDGSNWGQEQREDHLCFSPGSEVKFTVTFESDKFKVKLPDGHELTFPNRLGHSHLSYLSVRGGFNMSSFKLKE
In the case of B1, the “glycan array binding signal (z-score)” value [1] is reported as 0.012, the “glycan array binding signal (z-score)” value [2] is reported as -0.091 and the “glycan array binding signal (z-score)” value [3] is reported as 0.09. For the same binder, the “glycan array binding signal (z-score)” value [4] was -0.26, the “glycan array binding signal (z-score)” value [5] was -0.255 and the “glycan array binding signal (z-score)” value [6] was -0.28. For the same binder, the “glycan array binding signal (z-score)” value [7] was -0.268, the “glycan array binding signal (z-score)” value [8] was -0.28 and the “glycan array binding signal (z-score)” value [9] was -0.153. For the same binder, the “glycan array binding signal (z-score)” value [10] was -0.128, the “glycan array binding signal (z-score)” value [11] was -0.293 and the “glycan array binding signal (z-score)” value [12] was -0.257. The “glycan array binding signal (z-score)” value [13] was -0.357, the “glycan array binding signal (z-score)” value [14] was -0.269 and the “glycan array binding signal (z-score)” value [15] was -0.137. For the same binder, the “glycan array binding signal (z-score)” value [16] was -0.084, the “glycan array binding signal (z-score)” value [17] was -0.132 and the “glycan array binding signal (z-score)” value [18] was 0.001. The “glycan array binding signal (z-score)” value [19] was -0.259, the “glycan array binding signal (z-score)” value [20] was -0.09 and the “glycan array binding signal (z-score)” value [21] was -0.177. The “glycan array binding signal (z-score)” value [22] was -0.045, the “glycan array binding signal (z-score)” value [23] was -0.06 and the “glycan array binding signal (z-score)” value [24] was -0.192. The “glycan array binding signal (z-score)” value (GlcNAc(b1-3)Fuc) was -0.228, the “glycan array binding signal (z-score)” value (GlcNAc(b1-3)Gal) was -0.282 and the “glycan array binding signal (z-score)” value [25] was -0.241. The “glycan array binding signal (z-score)” value (GlcNAc(b1-3)Gal(b1-4)Glc) was -0.274, the “glycan array binding signal (z-score)” value [26] was -0.262 and the “glycan array binding signal (z-score)” value [27] was -0.103. For the same binder, the “glycan array binding signal (z-score)” value [28] was 0.078, the “glycan array binding signal (z-score)” value [29] was 0.227 and the “glycan array binding signal (z-score)” value [30] was -0.285. The “glycan array binding signal (z-score)” value [31] was -0.043, the “glycan array binding signal (z-score)” value [32] was -0.128 and the “glycan array binding signal (z-score)” value [33] was -0.151. For the same binder, the “glycan array binding signal (z-score)” value [34] was -0.092, the “glycan array binding signal (z-score)” value [35] was -0.093 and the “glycan array binding signal (z-score)” value [36] was -0.154. For the same binder, the “glycan array binding signal (z-score)” value [37] was -0.091, the “glycan array binding signal (z-score)” value [38] was 0.017 and the “glycan array binding signal (z-score)” value [39] was -0.036. For the same binder, the “glycan array binding signal (z-score)” value [40] was -0.103, the “glycan array binding signal (z-score)” value [41] was -0.139 and the “glycan array binding signal (z-score)” value [42] was -0.277.

Source: the supplement of paper PMC8728848
